# Measured values from PubChem BioAssay AID2675 (National Center for Advancing Translational Sciences (NCATS), 2010).
# Among all 280,000 compounds or so, about 100 (0.036%) were called active. Calls come from the whole dose curve; as a rule, active = well fitted inhibition curve with a large enough effect in the signal ratio, with a control signal flat (not every such curve was filed as active); inconclusive = small, poorly fitted or top-dose-only effect, or effect the other way, or a change in a side signal; inactive = no such curve, though single readings can be large or run the other way; the % refers to the signal ratio. The inconclusive results got no clear call from the source. A potency beside an inconclusive call is a rough fit, not a confirmed value. A note “side channel” means that the fit belongs to a control or component signal, not to the main read-out.
# Molecular target: Muscleblind-like protein 1 (Homo sapiens) (UniProt Q9NR56)
# Assay: qHTS Assay for Inhibitors of MBNL1-poly(CUG) RNA binding
# Conditions: TR-FRET MBNL1-His/biotin-(CUG)12 binding, 665/545 ratio; series mostly up to 57.5 µM
# Outline: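 Compound titration spanned 92 nM–58 uM against the MBNL1-His/biotin-(CUG)12 complex. After 60 min at room temperature with 5 nM streptavidin-XL665 and 0.055 ng/ul terbium anti-His, ratiometric 665/545 nm emission (Ex 340 nm) normalized to controls.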
# Potency is the fitted concentration of half-maximal effect; tags give direction and shape of the fitted curve or compound fluorescence and quenching.
# UniProt Q9NR56, sequence (Q9NR56 whole entry, looked up): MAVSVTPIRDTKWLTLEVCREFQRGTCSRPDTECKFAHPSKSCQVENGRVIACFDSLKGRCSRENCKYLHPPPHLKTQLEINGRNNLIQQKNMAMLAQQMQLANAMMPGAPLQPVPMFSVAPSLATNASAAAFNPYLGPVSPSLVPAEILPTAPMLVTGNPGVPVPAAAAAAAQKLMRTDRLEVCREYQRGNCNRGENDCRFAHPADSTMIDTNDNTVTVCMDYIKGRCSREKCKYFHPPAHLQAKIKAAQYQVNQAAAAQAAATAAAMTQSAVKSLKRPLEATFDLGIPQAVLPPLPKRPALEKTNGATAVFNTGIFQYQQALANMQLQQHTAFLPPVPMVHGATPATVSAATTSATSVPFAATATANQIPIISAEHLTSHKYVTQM
row,Structure (SMILES),Potency
1,N#C/C(=C\c1c(N2CCC(C(N)=O)CC2)nc2ccccn2c1=O)S(=O)(=O)c1ccccc1,"inconclusive: 12.6 µM [quencher, partial curve]"
2,COc1ccc2nc(NC(=O)c3ccccc3[N+](=O)[O-])sc2c1,"inconclusive: 14.1 µM [quencher, side channel, partial curve]"
3,O=C(N/N=C/C=C/c1ccco1)c1ccncc1,"inconclusive: 20 µM [quencher, side channel, partial curve]"
4,CCCN(CCC)CCCNC(=O)c1cc2cc3ccc(OC)cc3nc2o1,"inconclusive: 15.8 µM [quencher, side channel, partial curve]"
5,CCc1cc2ccc(OC)cc2nc1SCC(=O)NNC(C)=O,"inconclusive: 39.8 µM [fluorescent, side channel, single point]"
6,Cc1c(Cl)c([N+](=O)[O-])nn1CCCC(=O)Nc1cccc(O)c1,"inconclusive: 28.2 µM [quencher, side channel, single point]"
7,CN1C(=O)c2cccc3c(S(=O)(=O)NCc4ccco4)ccc1c23,"inconclusive: 31.6 µM [quencher, side channel, partial curve]"
8,CN1CCN(c2ccc(C(=O)NC3CCCCC3)cc2[N+](=O)[O-])CC1,"inconclusive: 12.6 µM [quencher, side channel, partial curve]"
9,Oc1ccc(Nc2nc(NCC3CCCO3)c3ccccc3n2)cc1 (stereo not given),"inconclusive: 50.1 µM [inhibitor, partial curve]"
10,CCCCOC(=O)c1ccc(NC(=O)C(=O)NCc2cccnc2)cc1,"inconclusive: 31.6 µM [quencher, side channel, single point]"
11,CC(=O)NS(=O)(=O)c1ccc2c(c1)C(=O)c1cc(S(=O)(=O)NC(C)=O)ccc1-2,"inconclusive: 14.1 µM [quencher, side channel, partial curve]"
12,c1ccc2c(c1)OCC(c1nnc3sc(-c4cnccn4)nn13)O2 (stereo not given),"inconclusive: 20 µM [quencher, side channel, partial curve]"
13,COC(=O)c1[nH]c2ccc(Br)cc2c1NC(=O)Oc1ccccc1,"inconclusive: 12.6 µM [quencher, side channel, partial curve]"
14,CCSC1=NC(=O)/C(=C2/C=Cc3ccccc3N2CC)S1,"inconclusive: 3.16 µM [quencher, full curve]"
15,O=C(C[n+]1cccc2ccccc21)c1ccc(NC(=O)c2ccccc2)cc1,"inconclusive: 14.1 µM [quencher, side channel, partial curve]"
